According to patent US20160053277A1, “Compositions Having Dicamba Decarboxylase Activity and Methods of Use” (PIONEER HI-BRED INTERNATIONAL, INC., priority 2013, published 2016):

B1: 65 (protein, listed as Ailuropoda melanoleuca)
chain: MAKIDVHSHILPKEWPDLKKRFGYGGWVQLQHHNKGEAKMMKDGKVFRVVQENCWDPEVRIREMDQTGVTVQALSTVPVMFSYWAKPQDTLDLCQLLNNDLAATVANHPRRFVGLGTLPMQAPELAVKEMERCVKELGFPGVQIGSHINEWDLNAKELFPVYAVAEKLNCSLFVHPWDMQMDGRMAKYWLPWLVGMPAETTTAICSMIMGGVFEKFPKLKVCFAHGGGAFPFTVGRISHGFNMRPDLCAQDNPINPKKYLGSFYTDSLVHDPLALKLLTDVIGKDKVILGTDYPFPLGELEPGKLIESMEEFEEETKDKLKAGNALAFLGLERKQFE
B2: 66 (protein, listed as Amphimedon queenslandica)
chain: MASGIKVDIHNHILPERWPDLKERYGYGGWIQLHHHCQGKARMLKDGQLFRVVDENCWSPEARIKDMDNTGVTVQALSTVPVMFSYWAKPEDTLDLCKILNNDLAQTVAKFPKRFVGLGTLPMQAPELAVQELKRCIKELGFPGVQIGSHVNEWNLDATELQCVFAAAEELNAAVFVHPWDMETGGRMSKYWLPWLVGMPAETATAICSVLFGGVLERHPNLKICFAHGGGSFPYTIGRIEHGFNVRPDLCATENSVNPRSYIGKVYTDSLVHDQKALKFLVDIIGEDRVVLGSDYPFPLGEHFPGKLIESIEEWDTSLKDKLLSKNAFEFLGLDPSQYET
B3: 67 (protein, listed as Amblyomma maculatum)
chain: MASSFSAAANLKIDLHAHVTPDRWPNLRERYGYGGWLDIKHESDKTAVMSYDDGRFFRRIESNCWNIDERIADMDRTGVTVQALSTTPVLFSYWAKPEDALDFSRLQNDFVASLVNRRPDRFVGMCTVPMQSPQLAAEELKRCVSQLGFRAVIVGSHINEWTLADRALDPFYRTVKELGVSIFVHPWDMPPSTRYNKYWLQWLVGMPAETTAAICEVIFGGLLERFPRLKLCFAHGAGSFPYTVGRIQHGFDVRPDLCAVDNKIPPKGYLGEIYADSLVHNRGSLRLLLDTLGEDRVMLGSDYPYPLGEIDRPGRLIETSGLQNSVKEKLLWKKCCELPRN

Experiments:
[1] = Saturation mutagenesis of SEQ ID NO:109: dicamba decarboxylation activity of point mutants (carbon dioxide released); conditions: decarboxylation activity (carbon dioxide released) of point mutant compared with unmutated backbone protein; backbone SEQ ID NO: 109
[2] = 14C assay with IPTG-induced recombinant E. coli cells: 14CO2 captured from [14C]-carboxyl-labeled dicamba; conditions: for Enzymatic Detection level: dicamba decarboxylation activity of the protein of the given SEQ ID NO, High / Low / No; for Dicamba Decarboxylase Activity: induced recombinant E. coli cells, [14C]-carboxyl-labeled dicamba, 14CO2 capture

Row | Molecule | Fold Activity [1] | Enzymatic Detection level [2] | Dicamba Decarboxylase Activity [2]
1 | B1 | 1.7 | Low | Low
2 | B2 | 1.6 | Low | Low
3 | B3 | 1.3 | Low | Low
